Over roughly 110,000 compounds, “z-score” has its median near -0.1; the highest 2% begin near 2. The list shows a part of the results. The source made the active and inactive calls.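 How the source made its calls: active means z-score in the third read window above 3 or below -3; inactive means the rest.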
Each compound was assayed against Metabotropic glutamate receptor 8 (Rattus norvegicus) (UniProt P70579) (assay: rat mGluR8 modulators via GIRK flux, primary screen, cell-based, thallium flux, HTS (AID 488969)). Conditions: HEK293 rat mGluR8, GIRK (G protein-gated inwardly rectifying potassium channel) thallium flux, FluoZin2; at 10 µM; stronger effect = higher value; submaximal glutamate (EC20) added with thallium.
Chain of UniProt P70579 (P70579 whole entry, looked up): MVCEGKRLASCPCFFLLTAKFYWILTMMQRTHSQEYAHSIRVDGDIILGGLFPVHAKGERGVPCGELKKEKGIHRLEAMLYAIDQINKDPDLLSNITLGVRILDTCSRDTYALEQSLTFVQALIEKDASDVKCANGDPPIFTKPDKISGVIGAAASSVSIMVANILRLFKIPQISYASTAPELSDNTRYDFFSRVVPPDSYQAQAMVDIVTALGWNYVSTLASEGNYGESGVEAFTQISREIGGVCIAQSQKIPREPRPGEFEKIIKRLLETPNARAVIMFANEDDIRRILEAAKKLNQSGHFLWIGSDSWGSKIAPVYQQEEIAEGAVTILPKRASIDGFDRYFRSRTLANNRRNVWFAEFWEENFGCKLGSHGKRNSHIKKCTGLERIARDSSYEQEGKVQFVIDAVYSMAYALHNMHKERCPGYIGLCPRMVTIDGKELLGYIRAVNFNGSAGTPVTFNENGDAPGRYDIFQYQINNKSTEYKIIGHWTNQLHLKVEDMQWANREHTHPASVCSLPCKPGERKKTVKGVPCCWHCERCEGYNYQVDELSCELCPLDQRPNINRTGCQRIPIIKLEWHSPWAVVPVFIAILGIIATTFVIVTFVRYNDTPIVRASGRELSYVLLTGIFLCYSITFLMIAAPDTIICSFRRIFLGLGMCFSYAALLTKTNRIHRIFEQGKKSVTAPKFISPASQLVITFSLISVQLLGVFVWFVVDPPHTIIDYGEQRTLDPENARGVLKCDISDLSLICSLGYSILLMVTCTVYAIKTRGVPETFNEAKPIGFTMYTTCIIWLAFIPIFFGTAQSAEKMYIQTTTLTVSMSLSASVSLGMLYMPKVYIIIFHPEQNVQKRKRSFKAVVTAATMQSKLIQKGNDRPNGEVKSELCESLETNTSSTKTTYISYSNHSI

Question: For `C=CCn1c(=S)[nH]c2ccc(Br)cc2c1=O`, which z-score is on record?
Answer: Its z-score is active: 15.

Question: How did the z-score turn out when `O=C(c1ccc(F)cc1)c1ccc(N2CCCC2)cc1` was run?
Answer: Its z-score is -0.699.

Question: Which z-score does the source give for `CCOc1ccc(NC(=O)N2CCC(C(N)=O)(N3CCCCC3)CC2)cc1` here?
Answer: Its z-score is -0.0579.

Question: With `COc1ccc(CCn2c(N3CCN(C)CC3)nc3c2c(=O)[nH]c(=O)n3C)cc1` as the compound, how does the z-score read?
Answer: Its z-score is 0.18.

Question: How did the z-score turn out when `O=C1CC(=O)N2N=C(c3ccc([N+](=O)[O-])cc3)SC2=N1` was run?
Answer: Its z-score is -0.0424.

Question: With `Cn1c2ccccc2c2ncn(CCCN3CCOCC3)c(=O)c21` as the compound, how does the z-score read?
Answer: Its z-score is -0.236.

Question: Which z-score does the source give for `CC1(C)CC(=O)C2=C(C1)N(c1ncn[nH]1)C(N)=C(C#N)C2c1ccccc1` (stereo not given) here?
Answer: The z-score was -1.1.

Question: `CCCCNC(=O)OCC(CC)NC(=O)OC(C)C` (stereo not given) was tested. Which z-score did it give?
Answer: Its z-score is 0.755.

Question: `O=[N+]([O-])c1cc(C(F)(F)F)ccc1N1CCN(S(=O)(=O)c2ccc3ccccc3c2)CC1` was tested. Which z-score did it give?
Answer: The z-score was -0.295.

Question: Which z-score does the source give for `c1ccc(-c2csc(N3CCN(c4ccccn4)CC3)n2)cc1` here?
Answer: Its z-score is -0.124.

Question: How did the z-score turn out when `O=C(NCCCN1CCN(c2cccc(Cl)c2)CC1)C1CCC(=O)N1Cc1ccccc1Cl` (stereo not given) was run?
Answer: Its z-score is -0.31.

Question: For `CCN(Cc1cc2cc(OC)ccc2[nH]c1=O)C(=O)Cc1ccc(OC)cc1`, which z-score is on record?
Answer: The z-score was -0.165.

Question: How did the z-score turn out when `CCN(CC)c1nc2c3c(nc4c(c3c1C#N)CC(=O)N4c1ccc(Cl)cc1)NC(C)=N2` was run?
Answer: The z-score was -0.314.

Question: `c1ccc(-n2ncc3c2ncn2nc(-c4ccco4)nc32)cc1` was tested. Which z-score did it give?
Answer: Its z-score is 0.333.

Question: For `COc1cc(/C=N/NC(=O)c2c(-c3ccccc3)noc2C)cc(OC)c1OC`, which z-score is on record?
Answer: The z-score was -0.437.

Question: With `O=C(NCCCN1CCOCC1)c1cc2c(s1)CCC2` as the compound, how does the z-score read?
Answer: The z-score was -0.0076.

Question: For `CC1CC(C)(C)NC(=O)O1` (stereo not given), which z-score is on record?
Answer: The z-score was -0.166.

Question: How did the z-score turn out when `Cc1cc(C(=O)N/N=C/c2ccc(-c3cccc(Cl)c3Cl)o2)n[nH]1` was run?
Answer: The z-score was -0.0988.

Question: With `CCOC(=O)c1nnc(-c2cccs2)nc1NC(C)C` as the compound, how does the z-score read?
Answer: The z-score was -1.51.

Question: Which z-score does the source give for `COc1ccc(NC(=S)NCCc2c[nH]c3ccc(OC)cc23)c(OC)c1` here?
Answer: The z-score was 0.294.

Question: With `O=C(O)c1ccc(/C=N/Nc2nnnn2-c2ccccc2)cc1` as the compound, how does the z-score read?
Answer: Its z-score is -0.113.

Question: For `O=C(CCCOc1ccccc1)N1CCN(C(=O)c2ccco2)CC1`, which z-score is on record?
Answer: The z-score was -0.244.

Question: For `Cc1nc(N[C@@H](Cc2c[nH]c3ccccc23)C(=O)O)c2oc3ccccc3c2n1`, which z-score is on record?
Answer: The z-score was -0.512.

Question: How did the z-score turn out when `O=C(N/N=C/c1ccccn1)c1ccco1` was run?
Answer: Its z-score is 0.413.

Question: For `Cc1ccc(C(=O)NNC(=O)CSc2nnc(-c3ccccc3)n2Cc2ccccc2)cc1`, which z-score is on record?
Answer: Its z-score is -0.425.

Question: `COc1ccc(Br)cc1C1N2CC3(C)CN1CC(C)(C2)C3=O` (stereo not given) was tested. Which z-score did it give?
Answer: Its z-score is 0.9.

Question: For `COCCCN1C(=O)C(O)=C(C(=O)c2ccco2)C1c1ccc(Br)cc1` (stereo not given), which z-score is on record?
Answer: The z-score was -2.88.

Question: How did the z-score turn out when `COc1ccc(C(=O)/C=C(\C)NCc2ccc3c(c2)OCO3)cc1` was run?
Answer: Its z-score is -0.271.

Question: For `O=C(O)c1ccc(N2Cc3ccccc3C2)cc1O`, which z-score is on record?
Answer: Its z-score is -0.168.

Question: For `CN(Cc1ccccc1)S(=O)(=O)c1ccc(NC(=S)NC(=O)C2CCCC2)cc1`, which z-score is on record?
Answer: Its z-score is -0.095.

Question: Which z-score does the source give for `CCCC1=C(C(=O)OCC)C(c2ccncc2)n2ncnc2N1` (stereo not given) here?
Answer: Its z-score is -0.252.

Question: How did the z-score turn out when `O=C(NCC1CCCO1)c1onc(CSc2ccc(F)c(F)c2)c1C(=O)O` (stereo not given) was run?
Answer: Its z-score is -0.0992.

Question: `CC(C)c1ccc(NC(=O)c2snc3ccc(Cl)cc23)cc1` was tested. Which z-score did it give?
Answer: Its z-score is -0.116.

Question: How did the z-score turn out when `COc1ccc2c(c1)c1c(n2C(C)=O)C(OC(C)=O)=NCC1` was run?
Answer: The z-score was -0.386.

Question: Which z-score does the source give for `COc1ccc2c(c1)N(C(=O)CN1C(=O)C3CCCCC3C1=O)C(C)(C)C=C2C` (stereo not given) here?
Answer: The z-score was -0.463.

Question: `S=C(Nc1ccc(Br)cc1)NC1CCCCC1` was tested. Which z-score did it give?
Answer: The z-score was 0.116.

Question: How did the z-score turn out when `C/C(=N/OC(=O)c1ccc(C)cc1)c1cccs1` was run?
Answer: The z-score was -0.0962.

Question: With `COC(=O)CC1C(=O)NCCN1C(=S)NC(=O)C(c1ccccc1)c1ccccc1` (stereo not given) as the compound, how does the z-score read?
Answer: Its z-score is -0.0622.

Question: Which z-score does the source give for `COc1cccc(C(=O)NNC2=CC(=O)CC(C)(C)C2)c1` here?
Answer: Its z-score is -0.126.

Question: `CCNCCOC(c1ccccc1)c1ccccc1` was tested. Which z-score did it give?
Answer: Its z-score is 0.455.

Question: With `COc1ccc(-n2c(SCC(=O)Nc3cc(C)on3)nc3ccc(O)cc3c2=O)cc1OC` as the compound, how does the z-score read?
Answer: Its z-score is -0.81.

Question: With `CCc1ccccc1NC(=O)CSc1nc(-c2ccccc2)nn1C(=O)c1cccc([N+](=O)[O-])c1` as the compound, how does the z-score read?
Answer: Its z-score is -0.303.

Question: With `CCc1cc2c(N3CCN(c4ccccc4)CC3)ncnc2s1` as the compound, how does the z-score read?
Answer: Its z-score is -1.96.

Question: `O=C(/C=C/c1ccc2c(c1)OCO2)Nc1c(C(=O)O)[nH]c2ccccc12` was tested. Which z-score did it give?
Answer: Its z-score is 0.14.

Question: With `CCNC(=S)SCCOc1ccccc1C` as the compound, how does the z-score read?
Answer: Its z-score is 0.21.

Question: `O=C(CCn1c(=O)[nH]c2ccsc2c1=O)N(CCc1ccccc1)Cc1ccccc1` was tested. Which z-score did it give?
Answer: Its z-score is -0.716.

Question: With `CC(C)NC(=O)CCCC(=O)NC(C)C` as the compound, how does the z-score read?
Answer: The z-score was 0.492.

Question: How did the z-score turn out when `Cc1ccccc1NC(=O)CC1SCCNC1=O` (stereo not given) was run?
Answer: The z-score was 0.875.

Question: How did the z-score turn out when `CCOC(=O)c1c(N)sc2c(O)c(Br)ccc12` was run?
Answer: The z-score was 0.293.

Question: `COc1ccc(C2NC(=O)C(C)S2)cc1` (stereo not given) was tested. Which z-score did it give?
Answer: Its z-score is -0.0287.

Question: Which z-score does the source give for `CCNC(=O)CN(CCc1ccccc1)S(=O)(=O)c1ccc(OC)cc1` here?
Answer: The z-score was -0.329.

Question: For `COC(=O)c1ccc(CNC(=O)/C=C/c2cc([N+](=O)[O-])ccc2OC(F)F)cc1`, which z-score is on record?
Answer: The z-score was 0.0959.

Question: Which z-score does the source give for `Cc1cccc(-n2c(SCc3cc(=O)n4c(C)cccc4n3)nc3[nH]ncc3c2=O)c1` here?
Answer: Its z-score is -0.444.

Question: `CN(C)c1ccc(/C=N\NC(=S)SCN2C(=O)C3CCC(C)(C2=O)C3(C)C)cc1` (stereo not given) was tested. Which z-score did it give?
Answer: The z-score was 1.74.

Question: Which z-score does the source give for `CC(C)OC(=O)c1cccc(-c2ccc(C=O)o2)c1` here?
Answer: The z-score was -0.582.

— PubChem BioAssay AID488969 (Vanderbilt High Throughput Screening Facility, 2010)
